Measured values reported in the supplement of paper PMC3334620.
In all, about 33,000 sequences were measured (“E-score (-0.5 to 0.5)”: median about -0.04, highest 2% from about 0.36 on). This is one part of the list.

Molecular target: T1, Hmlalpha2 (UniProt P0CY09)
T1 sequence: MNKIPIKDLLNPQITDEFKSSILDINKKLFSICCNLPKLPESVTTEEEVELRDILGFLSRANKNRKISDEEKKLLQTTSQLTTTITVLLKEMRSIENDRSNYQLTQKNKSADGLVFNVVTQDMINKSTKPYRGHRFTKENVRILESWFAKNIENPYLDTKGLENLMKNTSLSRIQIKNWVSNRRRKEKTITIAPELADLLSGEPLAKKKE
Assay: PBM E-score (8-mer binding enrichment) (E-score (-0.5 to 0.5)); higher = stronger / more preferred TF binding; most listed sequences are background and not binding sites
Details: protein concentration: 200 nM; construct: GST-full length
Method in brief: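 Using PURExpress in vitro transcription/translation, GST-tagged yeast transcription factors were made in full-length or DNA-binding-domain form. These were applied at about 100-200 nM to double-stranded universal all-10-mer Agilent arrays, and bound protein was detected with fluorescent anti-GST. Scans were normalised with masliner before the Universal PBM Analysis Suite assigned E-scores to ungapped eight-base words pooled with their reverse complements.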

Sequence | PBM E-score
AGCATAGC | 0.0169
CGCTACCG | -0.0865
CATTGCGG | -0.0412
CTGTGTGA | 0.247
AACGACCT | -0.123
TTCATGAA | -0.00198
GCGTGTGA | 0.284
CGCTTATC | -0.0319
ACAACCTC | 0.12
ACCCGTAG | -0.317
CAGGGGCG | -0.0915
ATCGCAAG | -0.145
GGTGTACA | 0.211
CTAAAGTA | -0.051
CCAGTAAC | -0.0298
AACGCCTC | -0.1
ATTGCCGA | 0.0146
CTATATAG | 0.0815
AGCCTGCA | -0.161
CCAATTTA | 0.198
CTTCCCCA | -0.246
AGAATGGA | -0.0999
GTTATATA | 0.217
CCGCGCGA | -0.0227
TGTACGAA | 0.185

Sequence | PBM E-score
ATCAACTC | 0.104
CTCGAGAC | 0.0127
CGGGGCGA | -0.21
AGTACGAT | -0.051
CAGTAGGC | -0.119
AACCCAAG | -0.0823
AAGCGGCA | -0.118
GAAGCAAA | 0.156
AAGTTGCA | 0.109
GGGGCCCC | -0.341
CTTCCGAC | -0.0469
GTTTCGTA | 0.171
ACCAACTC | -0.0318
ACGCCAGT | -0.0593
AGTCTAAA | -0.0738
CTTATACC | -0.0361
CCAGAAAC | -0.0471
ACCTCCGT | 0.0706
GTACGTTA | 0.294
CACTTAAC | 0.189
ACAATCAG | 0.00817
GGGTCTTA | -0.214
CACGGCAC | 0.128
CTTGTGGC | -0.221
ATTATAAT | 0.157

Sequence | PBM E-score
TAGATTAA | 0.209
CGGCTGTC | -0.238
ACACTAAT | 0.0478
AACAATCC | 0.121
CAATCAAA | 0.0602
CCCCTGTA | 0.034
AGACTCTA | -0.145
CGAGCGTC | -0.25
CCTTCGAA | -0.261
CCCGGCTC | -0.243
ATTATTGC | 0.184
CCGCCCGC | -0.173
CCTTGTAA | 0.454
AAGCCTCG | -0.0722
GATCAGAC | -0.139
ACACCATG | 0.235
CCAAACAA | 0.0549
ACGAATAC | 0.325
AATACGGC | 0.0587
AGTTGTGA | 0.103
GGAAACAA | -0.127
ATTCCTTC | -0.239
GAGATATA | -0.0803
GCAGGAGC | -0.115
CACGTCGC | -0.0575

Sequence | PBM E-score
ATCCACAA | -0.0471
ACGGCAGT | -0.171
CAGCTGAC | -0.0455
CACACTCG | 0.0994
CTATCGGC | -0.203
AAGGCGAC | -0.218
CGTTGTGC | 0.126
AATGTATC | 0.284
CGCATGAA | 0.0737
AGAAGAAC | -0.0198
CACACACA | 0.228
AGGCACAT | -0.0744
AAACATCC | 0.17
CTACACGA | 0.451
AACATGAG | 0.379
ATGGCAAA | -0.00556
CTAACTAG | 0.109
CCTGCGAA | -0.0687
GCGTCGAA | 0.0568
CAGCAGAA | 0.0468
CCCATCCC | -0.249
TCCCGTCA | 0.0899
CTCCACAG | -0.299
CGCGATGA | 0.073
AATCGAGG | -0.0941

Sequence | PBM E-score
AATGTCTG | 0.00213
AAAACCGA | -0.167
AGCAGGGA | -0.119
ATTAATCA | 0.127
GAACGACC | -0.307
CCTGAAGA | -0.207
TCATGACA | 0.275
ACAACCAG | 0.226
ATGTACCC | 0.148
CAAGTGAG | 0.00679
AATAGAGT | -0.124
CAATGTAA | 0.435
TAAAACGA | 0.136
ACATTCCA | 0.131
TGCTTCAA | 0.109
ACCTGCCA | -0.0979
GGCTGCAA | -0.0588
ATCCCAGA | -0.3
CCAAAACA | 0.24
TCTATGAA | -0.025
CCACAGAG | -0.0375
ACGGAAAA | -0.197
CGCGAGAG | -0.135
AACCGGAC | -0.0767
ATGGTCAC | -0.0853

Sequence | PBM E-score
AGTCACAT | 0.0821
TGTGGTAA | 0.265
ATCCTCGA | 0.0453
TAATCGGA | 0.0897
CTCACAAC | 0.107
CGTTAAGA | 0.281
AGGCCGCC | -0.326
GAGATCCC | -0.128
ACCGGCCA | -0.247
AATGGATC | -0.113
ACCTCAGA | -0.201
GAGATAAA | 0.0648
ACCTCTCG | -0.221
AGGCAGTG | -0.0335
ATGTAGCG | 0.181
ATAGAGGA | -0.131
ATAGGGTG | -0.223
GTTGGATA | -0.0282
CCATCCAC | -0.24
TCATATCA | 0.117
AACTGATC | 0.0828
ATTATCAA | 0.24
CCGCAACG | 0.0871
AGGCTCTA | -0.3
CCCATCGG | -0.119

Sequence | PBM E-score
ACTCTTGG | -0.117
CTCCGACA | 0.00915
TCAAGAGA | -0.0868
ATCGCTCC | -0.233
AGTCATCC | -0.134
CATAAGGA | 0.00441
CAGCCCGG | -0.22
GCGCGTAC | 0.225
CAGGATCG | -0.0832
AAAGAGAG | -0.121
ACTAGCGC | -0.144
CCCGGAAA | -0.154
CACTACCC | -0.18
ACGACATC | 0.0415
ACTGGCGA | -0.0596
CTGCCGAA | -0.0785
AATGGAAG | -0.112
CCTGGAAG | -0.387
ACACCGAG | 0.128
ACTAATCA | 0.0473
CAATTTCG | -0.0858
ACCACCCG | -0.232
